Where “and” joins values, the source holds several entries; their conditions need not be identical. Equal entries are not always repeated. Inconclusive means that the source gave no clear call. Such entries were picked first, then a sample of the others. Potencies of inconclusive entries are doubtful fits and often do not repeat. For part of these data: “Side channel” marks fits to a control or component signal instead of the main read-out. Calls of active or inactive are those of the source. Unless noted, calls come from the whole dose curve; as a rule, active = well fitted activation curve with a large enough effect; inconclusive = small, poorly fitted or top-dose-only effect; inactive = flat fitted curve, though single readings scatter.
Assay: Confirmation and Secondary Assay for Modulators of Hemoglobin Beta Chain Splicing at IVS2 654 locus (AID 910);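 note: HeLa cells stably carrying EGFP split by mutant beta-globin IVS2-654 intron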;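 note: potency of activators that raise GFP signal by restoring correct splicing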
Settings: HeLa EGFP-654 splicing reporter, GFP fluorescence, 48 h; series mostly up to 46.1 µM
Summary of the method: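 HeLa cells stably expressing EGFP interrupted by β-globin IVS2-654 intron, seeded overnight in Opti-MEM/2% FCS, then treated 2 days at 37 °C. Restored splicing read as total peak GFP intensity per well by laser scanning cytometry (488 nm excitation, 500–520 nm emission); 500 nM antisense PNA as control.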
Potency is the fitted concentration of half-maximal effect; tags give direction and shape of the fitted curve or compound fluorescence and quenching.

**Q.** Which Potency does the source give for `CCN(CC)C(C)CN1c2ccccc2Sc2ccccc21` (stereo not drawn) here?
**A.** The Potency was “inactive”.

**Q.** With `CC[C@@]1(O)C(=O)OCc2c1cc1n(c2=O)Cc2cc3c(CN(C)C)c(O)ccc3nc2-1` as the molecule, how does the Potency read?
**A.** Its Potency is active: 12.6 µM.

**Q.** With `Cc1cc(/C=C/c2ccc3cc(N(C)C)ccc3[n+]2C)c(C)n1-c1ccccc1` as the molecule, how does the Potency read?
**A.** The Potency was inconclusive: 31.6 µM [activator, single point].

Assay: qHTS Assay for Identification of Small Molecule Agonists for Hypoxia Response Element Signaling Pathway (AID 914; active = well fitted activation curve with a large enough effect in the signal ratio, with a control signal flat, not every such curve was filed as active; inconclusive = small, poorly fitted or top-dose-only effect, or effect the other way, or a change in a side signal; the % refers to the signal ratio; for activation: top concentration of the series differs between compounds; % of control where 0% means no effect)
Settings: ME-180 (cervical carcinoma) HRE-bla reporter, beta-lactamase ratio, CoCl2, 17 h; activation: hits give high values
Summary of the method: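 Reporter activity (beta-lactamase, CCF4 460nm/530nm ratio) in HRE-bla ME-180 cells is recorded after 17 h compound exposure with EC50 CoCl2 at 37 degrees Celsius. AC50 values come from titration data.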

**Q.** Which Potency does the source give for `COc1cccc2c1C(=O)c1c(O)c3c(c(O)c1C2=O)C[C@@](O)(C(=O)CO)C[C@@H]3O[C@H]1C[C@H](N)[C@H](O)[C@H](C)O1` here?
**A.** The Potency was inconclusive: 5010 nM [cytotoxic, side channel, partial curve].

**Q.** Which Potency does the source give for `CC1(C)O[C@@H]2C[C@H]3[C@@H]4C[C@H](F)C5=CC(=O)CC[C@]5(C)[C@H]4[C@@H](O)C[C@]3(C)[C@]2(C(=O)CO)O1` here?
**A.** The Potency was inconclusive: 6.3 nM [inhibitor, full curve].

**Q.** Which activation does the source give for `CNNCc1ccc(C(=O)NC(C)C)cc1` here?
**A.** Its activation is inactive: 9.99%.

**Q.** With `CC(C)(C(=O)c1cccnc1)c1cccnc1` as the molecule, how does the activation read?
**A.** Its activation is inactive: -12.9%.

**Q.** For `CC(=O)OCC(=O)[C@@]1(OC(C)=O)[C@@H](C)C[C@H]2[C@@H]3C[C@H](F)C4=CC(=O)C=C[C@]4(C)[C@@]3(F)[C@@H](O)C[C@@]21C`, which Potency is on record?
**A.** Its Potency is inconclusive: 10 nM [inhibitor, full curve].

**Q.** What does the source list for `COc1cc(C(=O)OCCCN2CCCN(CCCOC(=O)c3cc(OC)c(OC)c(OC)c3)CC2)cc(OC)c1OC`?
**A.** Potency: inconclusive: 3980 nM [activator, full curve]; activation: inconclusive: 33%

**Q.** With `COc1cnc(NS(=O)(=O)c2ccc(N)cc2)nc1` as the molecule, how does the activation read?
**A.** Its activation is inactive: 5.32%.

**Q.** For `CCOc1ccc(NC(C)=O)cc1`, which activation is on record?
**A.** The activation was inactive: 2%.

**Q.** For `CCOc1ccc(Cc2nccc3cc(OCC)c(OCC)cc23)cc1OCC`, which activation is on record?
**A.** The activation was inconclusive: -4.48%.

**Q.** With `Nc1ccc(C(=O)NCC(=O)O)cc1` as the molecule, how does the Potency read?
**A.** Its Potency is inconclusive: 5010 nM [inhibitor, single point].

**Q.** Which Potency does the source give for `CC[C@]1(O)C[C@@H]2CN(CCc3c([nH]c4ccccc34)[C@@](C(=O)OC)(c3cc4c(cc3OC)N(C)[C@H]3[C@@](O)(C(=O)OC)[C@H](OC(C)=O)[C@]5(CC)C=CCN6CC[C@]43[C@@H]65)C2)C1` here?
**A.** Its Potency is inconclusive: 31.6 nM [inhibitor, full curve].

**Q.** With `Oc1ccc(Cl)cc1Sc1cc(Cl)ccc1O` as the molecule, how does the activation read?
**A.** Its activation is inconclusive: -31.4%.

**Q.** With `CN(C)CCCOc1nn(Cc2ccccc2)c2ccccc12` as the molecule, how does the activation read?
**A.** Its activation is inconclusive: 148%.

**Q.** For `C[C@]12C=CC(=O)C=C1CC[C@H]1[C@@H]3C[C@@H](O)[C@](O)(C(=O)CO)[C@@]3(C)C[C@H](O)[C@@]12F`, which Potency is on record?
**A.** Its Potency is inconclusive: 31.6 nM [inhibitor, full curve].

**Q.** With `CC(=O)N(O)CCCCCNC(=O)CCC(=O)N(O)CCCCCNC(=O)CCC(=O)N(O)CCCCCN` as the molecule, how does the activation read?
**A.** Its activation is inconclusive: 8.42%.

**Q.** With `CC(=O)c1ccc2c(c1)N(CCCN1CCC(CCO)CC1)c1ccccc1S2` as the molecule, how does the activation read?
**A.** The activation was inconclusive: -9.94%.

**Q.** With `CC(=O)Oc1ccc(C(c2ccc(OC(C)=O)cc2)c2ccccn2)cc1` as the molecule, how does the Potency read?
**A.** The Potency was inconclusive: 501 nM [inhibitor, full curve] and inconclusive: 794 nM [inhibitor, full curve].

**Q.** For `CCCCC(=O)O[C@]1(C(=O)CO)CC[C@H]2[C@@H]3CCC4=CC(=O)CC[C@]4(C)[C@H]3[C@@H](O)C[C@@]21C`, which Potency is on record?
**A.** The Potency was inconclusive: 5 nM [inhibitor, full curve].

**Q.** For `CCCCCCCCNC(C)C(O)c1ccc(SC(C)C)cc1` (stereo not drawn), which activation is on record?
**A.** Its activation is inactive: 0.942%.

**Q.** For `CCOC(=O)C1=C(C)NC(C)=C(C(=O)OC)C1c1cccc([N+](=O)[O-])c1` (stereo not drawn), which Potency is on record?
**A.** Its Potency is inconclusive: 10000 nM [inhibitor, partial curve].

**Q.** For `CC(=O)OCC(=O)[C@@]12OC(C)(C)O[C@@H]1C[C@H]1[C@@H]3C[C@H](F)C4=CC(=O)C=C[C@]4(C)[C@@]3(F)[C@@H](O)C[C@@]12C`, which Potency is on record?
**A.** Its Potency is inconclusive: 1 nM [inhibitor, full curve].

**Q.** Which Potency does the source give for `NC(N)=NC(N)=NCCc1ccccc1` here?
**A.** The Potency was inconclusive: 6.31 µM [inhibitor, partial curve] and inconclusive: 10 µM [inhibitor, partial curve].

**Q.** Which Potency does the source give for `CCCCCCC[N+](CC)(CC)CCCCc1ccc(Cl)cc1` here?
**A.** The Potency was inconclusive: 12600 nM [inhibitor, single point].

**Q.** Which Potency does the source give for `CCC(C)n1ncn(-c2ccc(N3CCN(c4ccc(OCC5COC(Cn6cncn6)(c6ccc(Cl)cc6Cl)O5)cc4)CC3)cc2)c1=O` (stereo not drawn) here?
**A.** Its Potency is inconclusive: 2510 nM [cytotoxic, full curve].

**Q.** Which Potency does the source give for `CCCC(=O)O[C@]1(C(=O)COC(C)=O)CC[C@H]2[C@@H]3C[C@H](F)C4=CC(=O)C=C[C@]4(C)[C@@]3(F)[C@@H](O)C[C@@]21C` here?
**A.** Its Potency is inconclusive: 4 nM [inhibitor, full curve, poor fit].

**Q.** Which activation does the source give for `N=C(N)c1ccc(OCCCCCOc2ccc(C(=N)N)cc2)cc1` here?
**A.** Its activation is inactive: 3.68%.

**Q.** With `Cc1c(N(C)CS(=O)(=O)O)c(=O)n(-c2ccccc2)n1C` as the molecule, how does the activation read?
**A.** Its activation is inactive: -4.84%.

**Q.** For `CC(=O)OCC1=C(C(=O)O)N2C(=O)[C@@H](NC(=O)Cc3cccs3)[C@H]2SC1`, which activation is on record?
**A.** The activation was inactive: -3.15%.

**Q.** For `CC(=O)O[C@]1(C(C)=O)CC[C@H]2[C@@H]3C[C@H](C)C4=CC(=O)CC[C@]4(C)[C@H]3CC[C@@]21C`, which activation is on record?
**A.** Its activation is inconclusive: -28.2%.

Source: PubChem BioAssay (NCATS)
